Assay results taken from patent US20180289802A1 (CELGENE, published 2018).

Tests used:
[1] = biological target: cynomolgus PD-1 expressed on cells (cynomolgus monkey, UniProt B0LAJ3 25-288); experiment: cell-based or functional assay
[2] = biological target: T1, human PD-1 (soluble / purified antigen, construct not stated) (human, UniProt Q15116 partial chain, limits assumed); experiment: Binding ELISA; drug substance Batch A, 5°C, T = 0
T1 construct: also called soluble antigen

[3] = biological target: T1, human PD-1 (soluble / purified antigen, …); experiment: Binding ELISA; drug substance Batch B, 5°C, T = 0
[4] = biological target: T1, human PD-1 (soluble / purified antigen, …); experiment: Binding ELISA; drug substance Batch B, -70°C, T = 0
[5] = biological target: T1, human PD-1 (soluble / purified antigen, …); experiment: Binding ELISA; drug substance Batch B, 5°C, 1 month
[6] = biological target: T1, human PD-1 (soluble / purified antigen, …); experiment: Binding ELISA; drug substance Batch A, -20°C, 1 month
[7] = biological target: T1, human PD-1 (soluble / purified antigen, …); experiment: Binding ELISA; drug substance Batch A, -70°C, 3 months
[8] = biological target: T1, human PD-1 (soluble / purified antigen, …); experiment: Binding ELISA; drug substance Batch A, -20°C, 3 months
[9] = biological target: T1, human PD-1 (soluble / purified antigen, …); experiment: Binding ELISA; drug substance Batch B, -20°C, 3 months
[10] = biological target: T1, human PD-1 (soluble / purified antigen, …); experiment: Binding ELISA; drug substance Batch A, 25°C/60% RH, T = 0
[11] = biological target: T1, human PD-1 (soluble / purified antigen, …); experiment: Binding ELISA; drug substance Batch B, 25°C/60% RH, T = 0
[12] = biological target: T1, human PD-1 (soluble / purified antigen, …); experiment: Binding ELISA; drug product Batch B, 5°C inverted, 1 month
[13] = biological target: T1, human PD-1 (soluble / purified antigen, …); experiment: Binding ELISA; drug product Batch B, 5°C inverted, initial
[14] = biological target: T1, human PD-1 (soluble / purified antigen, …); experiment: Binding ELISA; drug substance Batch A, 25°C/60% RH, 0.5 month
[15] = biological target: T1, human PD-1 (soluble / purified antigen, …); experiment: Binding ELISA; drug substance Batch B, 25°C/60% RH, 0.5 month
[16] = biological target: T1, human PD-1 (soluble / purified antigen, …); experiment: Binding ELISA; drug product Batch A, 25°C/60% RH upright, 1 month
[17] = biological target: T1, human PD-1 (soluble / purified antigen, …); experiment: Binding ELISA; drug product Batch A, 25°C/60% RH upright, 3 months
[18] = biological target: T1, human PD-1 (soluble / purified antigen, …); experiment: Binding ELISA; drug product Batch A, 25°C/60% RH inverted, 1 month
[19] = biological target: T1, human PD-1 (soluble / purified antigen, …); experiment: Binding ELISA; drug product Batch A, 25°C/60% RH inverted, initial
[20] = biological target: T1, human PD-1 (soluble / purified antigen, …); experiment: Binding ELISA; drug product Batch B, 25°C/60% RH inverted, 1 month
[21] = biological target: T1, human PD-1 (soluble / purified antigen, …); experiment: Binding ELISA; drug product Batch B, 25°C/60% RH inverted, initial
[22] = biological target: T1, human PD-1 (soluble / purified antigen, …); experiment: Binding ELISA; drug product Batch A, 25°C/60% RH inverted, 0.5 month
[23] = biological target: T1, human PD-1 (soluble / purified antigen, …); experiment: Binding ELISA; drug product Batch B per paragraph 782 (table head prints Batch A), 5°C upright, 1 month
[24] = biological target: T1, human PD-1 (soluble / purified antigen, …); experiment: Binding ELISA; drug product Batch B per paragraph 782 (table head prints Batch A), 5°C upright, initial
[25] = biological target: T2, human PD-1 extracellular domain (residues 32-160), expressed in E. coli and refolded (human, UniProt Q15116 partial chain); experiment: Biacore T200; antibody captured on Fc-specific anti-human IgG; human PD-1 (32-160) flowed at 100 nM to 200 pM
T2 construct: also called PD1_002; internally produced human PD1 antigen

[26] = biological target: T2, human PD-1 extracellular domain …; experiment: Biacore T200, antibody captured on protein A or anti-human IgG, human PD1 antigen 0.3 to 200 nM, 1:1 fit; range over formulations and storage conditions

UniProt B0LAJ3, sequence (B0LAJ3 entry or part of it limits assumed): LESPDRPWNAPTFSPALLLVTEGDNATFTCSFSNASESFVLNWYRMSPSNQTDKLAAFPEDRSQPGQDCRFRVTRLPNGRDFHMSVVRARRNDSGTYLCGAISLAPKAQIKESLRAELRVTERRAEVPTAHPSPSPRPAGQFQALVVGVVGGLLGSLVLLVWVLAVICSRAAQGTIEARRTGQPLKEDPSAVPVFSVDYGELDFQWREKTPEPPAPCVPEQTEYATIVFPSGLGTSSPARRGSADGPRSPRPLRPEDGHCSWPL

B1: PD1AB-6-K3 (antibody, human IgG1, kappa)
heavy: EVQLVQSGAEVKKPGATVKISCKASGFNIKDTYMHWVQQAPGKGLEWMGRIDPANGDRKYDPKFQGRVTITADTSTDTAYMELSSLRSEDTAVYYCARSGPVYYYGSSYVMDYWGQGTTVTVSS[human IgG1 constant region with changes not written out]
light: DIVMTQSPDSLAVSLGERATINCKSGQSVLYSSNQKNFLAWYQQKPGQPPKLLIYWASTRESGVPDRFSGSGSGTDFTLTISSLQAEDVAVYYCHQYLYSWTFGQGTKLEIKRTVAAPSVFIFPPSDEQLKSGTASVVCLLNNFYPREAKVQWKVDNALQSGNSQESVTEQDSKDSTYSLSSTLTLSKADYEKHKVYACEVTHQGLSSPVTKSFNRGEC
notes: also called PD1AB-6-IgG1-K322A; PD1AB-6-K322A
- IL-2 EC50 (nM), cynomolgus PBMC assay, NHP1 [1]: 0.24 nM
- IL-2 EC50 (nM), cynomolgus PBMC assay, NHP2 [1]: 2.5 nM
- IL-2 EC50 (nM), cynomolgus PBMC assay, NHP3 [1]: 9.24 nM
- IL-2 EC50 (nM), cynomolgus PBMC assay, NHP4 [1]: 1.22 nM
- Binding ELISA, ratio of Reference EC50/Sample EC50 [2]: 99%
- Binding ELISA, ratio of Reference EC50/Sample EC50 [3]: 76%
- Binding ELISA, ratio of Reference EC50/Sample EC50 [4]: 76%
- Binding ELISA, ratio of Reference EC50/Sample EC50 [5]: 97%
- Binding ELISA, ratio of Reference EC50/Sample EC50 [6]: 79%
- Binding ELISA, ratio of Reference EC50/Sample EC50 [7]: 88%
- Binding ELISA, ratio of Reference EC50/Sample EC50 [8]: 89%
- Binding ELISA, ratio of Reference EC50/Sample EC50 [9]: 66%
- Binding ELISA, ratio of Reference EC50/Sample EC50 [10]: 99%
- Binding ELISA, ratio of Reference EC50/Sample EC50 [11]: 76%
- Binding ELISA, ratio of Reference EC50/Sample EC50 [12]: 83%
- Binding ELISA, ratio of Reference EC50/Sample EC50 [13]: 82%
- Binding ELISA, ratio of Reference EC50/Sample EC50 [14]: 87%
- Binding ELISA, ratio of Reference EC50/Sample EC50 [15]: 72%
- Binding ELISA, ratio of Reference EC50/Sample EC50 [16]: 74%
- Binding ELISA, ratio of Reference EC50/Sample EC50 [17]: 87%
- Binding ELISA, ratio of Reference EC50/Sample EC50 [18]: 73%
- Binding ELISA, ratio of Reference EC50/Sample EC50 [19]: 86%
- Binding ELISA, ratio of Reference EC50/Sample EC50 [20]: 78%
- Binding ELISA, ratio of Reference EC50/Sample EC50 [21]: 82%
- Binding ELISA, ratio of Reference EC50/Sample EC50 [22]: 102%
- Binding ELISA, ratio of Reference EC50/Sample EC50 [23]: 107%
- Binding ELISA, ratio of Reference EC50/Sample EC50 [24]: 82%
- Kd [25]: ~19 nM
- Kd [26]: 25.4 to 27.2 nM
